# From the supplement of paper PMC3334620
# In all, about 33,000 sequences were measured (“E-score (-0.5 to 0.5)”: median about -0.017, highest 2% from about 0.3 on). The list shows a part of the results.
# Target: T1, Sut1 (UniProt P53032)
# T1 sequence: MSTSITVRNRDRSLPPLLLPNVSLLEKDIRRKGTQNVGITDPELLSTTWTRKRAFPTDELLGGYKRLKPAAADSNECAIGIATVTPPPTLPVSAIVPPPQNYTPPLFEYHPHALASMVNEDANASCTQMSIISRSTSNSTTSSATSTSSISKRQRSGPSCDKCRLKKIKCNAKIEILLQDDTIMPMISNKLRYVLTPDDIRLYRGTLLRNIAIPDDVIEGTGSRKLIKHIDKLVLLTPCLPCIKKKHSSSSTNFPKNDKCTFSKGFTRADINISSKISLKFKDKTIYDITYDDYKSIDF
# Test: PBM E-score (8-mer binding enrichment) (E-score (-0.5 to 0.5)); higher = stronger / more preferred TF binding; most listed sequences are background and not binding sites
# Details: protein concentration: 200 nM; construct: GST-full length
# Summary of the method: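 Masliner-normalised scans of fluorescent anti-GST signal were the basis for scoring. That signal came from GST-tagged yeast transcription factors applied at about 100-200 nM to double-stranded universal all-10-mer Agilent arrays on fresh or once-stripped slides. Each ungapped eight-base word, pooled with its reverse complement, received an E-score from the Universal PBM Analysis Suite.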
row,Sequence,PBM E-score
1,ATCCGATA,0.215
2,ATGCGCGA,-0.0204
3,TCGATCCA,-0.127
4,ATCACAAG,0.00308
5,ACTGGAGA,-0.0654
6,ATGCTTGA,0.0338
7,ATCAGCAA,-0.171
8,AAAGACCC,0.0566
9,CGTGCAAA,-0.0235
10,CCAGATCC,-0.113
11,GGCAAACA,-0.119
12,ACTAATTG,0.0824
13,CCCATTAG,-0.38
14,ATATGAGA,0.0865
15,GAGAGTGC,-0.104
16,GAACGTGC,-0.234
17,ACGTCGAG,-0.248
18,CGACGTAC,0.0978
19,CGTAGACG,-0.0853
20,GCGTGTAA,-0.18
21,CGCCCTAC,-0.118
22,AACAACTC,-0.0194
23,ACGGTCCG,0.0302
24,GGGCACAA,-0.151
25,GTCGAAGA,0.0646

row,Sequence,PBM E-score
1,GGGAGAGA,-0.189
2,CTCTAGAA,-0.0857
3,CCTTGGGC,-0.218
4,AGCTTTAG,0.0455
5,TCATATAA,0.121
6,AGCTGCCT,-0.172
7,ATCGAATA,0.0868
8,GTACATCA,0.111
9,CCACCAGA,-0.234
10,TAAATTCA,0.133
11,AACCGGTA,-0.0996
12,TAAGCTGA,-0.0432
13,CAATCCAC,0.127
14,ACCGTGTA,-0.0124
15,CTCACCAC,-0.0825
16,CTGAAGAA,-0.116
17,TAACCTAA,0.147
18,GAATTGGC,-0.0577
19,ATAAACAT,0.288
20,GTATGCAA,0.0449
21,CTGTAAGA,0.0631
22,CCGTCTAA,0.0557
23,AAGGCGAG,-0.271
24,GTTGAAAA,0.104
25,ATGAAAAT,0.17

row,Sequence,PBM E-score
1,TAAGAGGA,0.11
2,ATGGCCAC,-0.246
3,AAAATTAC,0.237
4,CAGTTCAG,-0.0755
5,CTCACCCC,0.0815
6,CGTCCCAA,-0.0843
7,CGCCGCGA,0.0357
8,GTTAACTA,0.215
9,CATCTCCC,-0.138
10,ACCTATAG,-0.115
11,CTCAAGAC,-0.095
12,GCAAAAAC,0.149
13,AGGCCATG,-0.206
14,CCTCATAC,-0.18
15,TCAGTAAA,0.149
16,AGTGACTA,-0.0144
17,ACAGATGC,-0.0584
18,AACCGACT,0.124
19,CGACTGCA,-0.0805
20,AACAAACC,0.0984
21,GAGGAGAA,-0.27
22,CATAACTA,0.142
23,CAGGGAGC,-0.326
24,CTCAGTGC,-0.0955
25,CTTAGCCA,-0.155

row,Sequence,PBM E-score
1,CGGGTACG,-0.171
2,CGCACAAG,-0.13
3,AAAAGATT,0.0975
4,CAGAGCTA,-0.331
5,CACATTTC,0.25
6,CAATACAA,0.154
7,GGTGCCTA,-0.151
8,CTAGCGCA,-0.174
9,CTCGGGAA,-0.0661
10,AGTAACAC,0.0225
11,TACATGTA,0.204
12,CCCCCCAC,-0.359
13,CCAGACTA,-0.209
14,ATGGGACC,-0.22
15,CCAATTAG,0.0805
16,GTCGGCCA,-0.268
17,CCCTAAAA,0.0224
18,ACCAAGCG,-0.00241
19,CCGATCAA,0.108
20,GGATGAAC,0.0615
21,GGGCGGAA,-0.0137
22,TAATAGTA,0.283
23,ATCGGAAG,0.253
24,CCTAGGAG,-0.177
25,AACGGACT,0.444

row,Sequence,PBM E-score
1,ACGGCACA,-0.158
2,GTTTATTA,0.302
3,GTCCTCCA,-0.101
4,ACATCCAA,-0.00081
5,ATAGATCA,0.0921
6,AGTTAGAC,0.168
7,GGTAGCAA,-0.02
8,TATCTAGA,0.0246
9,AGTCAGAA,0.0251
10,CTGGCAAC,-0.199
11,ATAACACA,0.192
12,ATTGTTGA,0.0975
13,AAGTAGTG,-0.0875
14,ATGCAAGC,-0.0207
15,AGGTAGCC,-0.166
16,GAAGCAGC,-0.214
17,CATATTGC,-0.0751
18,CATCGGCC,-0.23
19,CATGATGG,-0.193
20,ACAGCCTG,-0.0779
21,CGGCACAC,-0.0257
22,ATTTATAA,0.287
23,ACGCTACT,-0.00433
24,AGATCATC,0.0227
25,CAGGCAGC,-0.109

row,Sequence,PBM E-score
1,ATCTAATC,0.175
2,CTAGTAAG,0.00245
3,ACAGAAGG,-0.236
4,CTTGAGTA,0.281
5,ATACTCTG,0.012
6,ATAGTTGA,0.145
7,AAGGAGAA,0.191
8,CCGGATGC,0.0378
9,CTTGATTC,0.119
10,ACCCAACA,-0.0229
11,ACGAAGAG,0.0228
12,AGAGCTAA,-0.0187
13,TCCATCCA,0.0381
14,ACGATGTG,0.00635
15,TCCTTCAA,0.0631
16,CATTCTCC,0.118
17,AGCTACGA,-0.177
18,CTCAGCCC,-0.262
19,AAGGCGGG,-0.3
20,GTCGCTCA,-0.0724
21,TCTGTACA,0.0985
22,CCTAGTCC,0.0512
23,AGATCTGA,-0.0761
24,ACGCGTCG,0.174
25,CGATTTTC,0.12

row,Sequence,PBM E-score
1,CGCGTGTA,-0.182
2,CCTCTGCG,-0.28
3,AGTATTGA,0.156
4,AAACGACA,0.0123
5,ACGTAAAG,0.0512
6,GATAGATA,0.275
7,GATCAGGA,-0.208
8,ACAGGACT,0.0143
9,AAGATGGT,0.102
10,GATTGCAC,-0.00335
11,CGAATTGA,0.0462
12,AAGGAACT,0.0597
13,ACATATAG,0.195
14,TGTGAAAA,0.107
15,CTCCACCC,-0.251
16,GACGCGCA,-0.147
17,AATGACGC,-0.0673
18,TATCATAA,0.251
19,CGAACCGC,-0.0422
20,CGACGCGC,-0.0381
21,ATCGAGAG,-0.0241
22,AGTGAGCA,-0.0201
